Results: the supplement of paper PMC4967469
A lower IC50 marks a more sensitive line; where the fit passes the top or lowest dose, that dose stands as a limit. For AUC the same curve is integrated over the 256-fold range of doses and scaled to a fraction; the more sensitive the line, the further below 1. For part of these data: Where the top dose is marked as inferred, it was calculated from the reported fits. For part of these data: Drugs with an entry number were screened twice under separate entries, and the two screens often disagree.

Tests used:
Experiment in all cases: Viability of human cancer cell lines after 72 h of drug (GDSC screen)
FTI-277 = compound: COC(=O)[C@H](CCSC)NC(=O)c1ccc(NC[C@@H](N)CS)cc1-c1ccccc1 [FTI-277]; settings: top dose 1.024 µM; top dose inferred
Experimental: (§1)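 Human cancer cell lines in 384-well plates, medium with 10% serum, drug for 72 h over a 256-fold dose range (nine 2-fold or five 4-fold steps up to the top dose). Adherent lines were fixed and stained with the nucleic acid dye Syto60, suspension lines read with resazurin; signal relative to control wells, capped at 0 and 100%. One two-parameter sigmoid per drug and line, fitted in a mixed model over all curves with the slope shared within a line.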

JNJ-26854165 = compound: c1ccc2c(CCNc3ccc(Nc4ccncc4)cc3)c[nH]c2c1 [JNJ-26854165]; settings: top dose 10 µM
Experimental: as §1

JQ1 = compound: Cc1sc2c(c1C)C(c1ccc(Cl)cc1)=N[C@@H](CC(=O)OC(C)(C)C)c1nnc(C)n1-2 [JQ1]
Experimental: as §1

OSI-906 = compound: C[C@]1(O)C[C@@H](c2nc(-c3ccc4ccc(-c5ccccc5)nc4c3)c3c(N)nccn32)C1 [OSI-906]; settings: top dose 2.56 µM; top dose inferred
Experimental: as §1

YM155 = compound: COCC[n+]1c2c(n(Cc3cnccn3)c1C)C(=O)c1ccccc1C2=O [YM155]; settings: top dose 5.12 µM
Experimental: as §1

Belinostat = compound: O=C(/C=C/c1cccc(S(=O)(=O)Nc2ccccc2)c1)NO [Belinostat]; settings: top dose 20 µM; top dose inferred
Experimental: as §1

SB-715992 = compound: Cc1ccc(C(=O)N(CCCN)[C@@H](c2nc3cc(Cl)ccc3c(=O)n2Cc2ccccc2)C(C)C)cc1 [SB-715992]; settings: top dose 0.128 µM; top dose inferred
Experimental: as §1

NSC-207895 = compound: CN1CCN(c2ccc([N+](=O)[O-])c3no[n+]([O-])c23)CC1 [NSC-207895]; settings: top dose 20 µM; top dose inferred
Experimental: as §1

[1] = top dose 1 µM, screen: GDSC drug entry 1218, top dose inferred
[2] = top dose 2.56 µM, screen: GDSC drug entry 163

Cell Line	AUC (FTI-277)	IC50 (FTI-277) [nM]	AUC (JNJ-26854165)	IC50 (JNJ-26854165) [nM]	AUC (JQ1; [1])	IC50 (JQ1; [1]) [nM]	AUC (JQ1; [2])	IC50 (JQ1; [2]) [nM]	AUC (OSI-906)	IC50 (OSI-906) [nM]	AUC (YM155)	IC50 (YM155) [nM]	AUC (Belinostat)	IC50 (Belinostat) [nM]	AUC (SB-715992)	IC50 (SB-715992) [nM]	AUC (NSC-207895)	IC50 (NSC-207895) [nM]
GCT (soft tissue, adherent)	0.98	> 1020	0.851	6820	0.988	> 1000	0.789	1040	0.976	> 2560	0.64	758	0.946	> 20000	0.989	> 128	0.989	> 20000
SCC-4 (head and neck, adherent)	0.967	> 1020	0.885	> 10000	0.982	> 1000	0.632	398	0.912	> 2560	0.073	< 20	0.501	1260	0.961	> 128	0.936	> 20000
LU-99A (large cell lung carcinoma, adherent)	0.974	> 1020	0.893	> 10000	0.986	> 1000	0.591	283	0.806	1280	0.18	35.4	0.627	2780	0.967	> 128	0.974	> 20000
BEN (non-small cell lung carcinoma, adherent)	0.97	> 1020	0.893	> 10000	0.984	> 1000	0.494	153	0.976	> 2560	0.559	475	0.582	2170	0.896	> 128	0.978	> 20000
SW156 (kidney, adherent)	0.986	> 1020	0.724	2930	0.984	> 1000	0.89	> 2560	0.953	> 2560	0.506	332	0.765	8090	0.959	> 128	0.982	> 20000
KYSE-180 (oesophagus, adherent)	0.986	> 1020	0.84	6420	0.982	> 1000	0.697	556	0.895	> 2560	0.03	< 20	0.33	429	0.662	22.1	0.867	16700
BFTC-909 (kidney, adherent)	0.983	> 1020	0.889	> 10000	0.92	> 1000	0.74	759	0.969	> 2560	0.159	29.7	0.64	3010	0.973	> 128	0.986	> 20000
NCI-H2170 (lung squamous cell carcinoma, adherent)	0.983	> 1020	0.929	> 10000	0.964	> 1000	0.892	> 2560	0.954	> 2560	0.331	105	0.673	3900	0.952	> 128	0.984	> 20000
EPLC-272H (lung squamous cell carcinoma, adherent)	0.982	> 1020	0.859	> 10000	0.972	> 1000	0.974	> 2560	0.94	> 2560	0.049	< 20	0.284	280	0.62	17.9	0.755	7590
KYSE-70 (oesophagus, adherent)	0.959	> 1020	0.955	> 10000	0.98	> 1000	0.825	1730	0.975	> 2560	0.544	427	0.558	1820	0.919	> 128	0.986	> 20000
KYSE-270 (oesophagus, adherent)	0.975	> 1020	0.784	3590	0.973	> 1000	0.443	115	0.952	> 2560	0.075	< 20	0.529	1480	0.903	126	0.894	17800
HPAC (pancreas, adherent)	0.979	> 1020	0.962	> 10000	0.969	> 1000	0.82	2340	0.779	1510	0.076	< 20	0.539	1660	0.873	> 128	0.96	> 20000
